About 65 (0.1%) of roughly 45,000 compounds were called active. Calls come from the whole dose curve; as a rule, active = well fitted activation curve with a large enough effect; inconclusive = small, poorly fitted or top-dose-only effect; inactive = no such curve, though single readings can be large or run the other way. This is one part of the list.
Target: Galactocerebrosidase (Homo sapiens) (UniProt P54803)
Assay: A Novel Cell-Based Assay to Identify Small Molecules for B -Galactocerebrosidase; note: 0% is about no effect; nearly all actives have a fitted effect of over 65% in size
Details: 145M-Twi-hGALC-G270D cells (Twitcher mouse brain line with human GALC G270D), HMU-beta-Gal fluorescence, 48 h; series mostly up to 57.5 µM; activation: at the top concentration
Summary of the method: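 Fluorescence readout: HMU-β-gal cleavage by mutant GALC (0.1 mM final, citrate/phosphate pH 5.2 with 1 mg/mL taurocholate), stopped with carbonate/bicarbonate plus Triton X-100. Cells: murine Twitcher 145M-Twi expressing human G270D GALC; qHTS for activators.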

Chain of UniProt P54803 (P54803 whole entry, looked up): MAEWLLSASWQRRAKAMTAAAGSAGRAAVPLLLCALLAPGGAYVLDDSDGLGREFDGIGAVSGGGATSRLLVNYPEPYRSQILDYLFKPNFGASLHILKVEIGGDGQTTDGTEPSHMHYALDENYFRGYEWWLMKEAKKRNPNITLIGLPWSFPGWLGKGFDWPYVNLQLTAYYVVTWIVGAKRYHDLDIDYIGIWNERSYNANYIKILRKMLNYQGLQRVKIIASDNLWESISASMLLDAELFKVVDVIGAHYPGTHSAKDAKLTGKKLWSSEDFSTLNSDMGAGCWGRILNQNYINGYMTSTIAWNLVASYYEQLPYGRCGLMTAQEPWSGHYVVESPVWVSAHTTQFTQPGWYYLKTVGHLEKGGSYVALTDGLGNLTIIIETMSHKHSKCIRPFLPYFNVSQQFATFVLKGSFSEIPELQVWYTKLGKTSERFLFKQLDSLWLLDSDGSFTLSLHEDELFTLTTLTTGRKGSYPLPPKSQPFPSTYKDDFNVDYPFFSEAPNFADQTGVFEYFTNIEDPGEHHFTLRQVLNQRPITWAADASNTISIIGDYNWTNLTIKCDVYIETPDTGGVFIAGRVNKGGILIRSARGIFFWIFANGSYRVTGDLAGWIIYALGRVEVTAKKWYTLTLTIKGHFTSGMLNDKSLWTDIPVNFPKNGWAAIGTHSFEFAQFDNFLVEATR

activation, inactive:
O=C(Nc1ccc(Cl)cc1)C1CCCN(S(=O)(=O)c2ccc3[nH]c(=O)ccc3c2)C1 (stereo not given) -0.566%
CCC(C(=O)Nc1ccc(C(=O)OC)cc1)n1c(=O)c(-c2ccccc2NC(C)=O)nc2ccccc21 (stereo not given) -27.5%
CCOC(=O)c1cccc(NC(=O)c2oc3c(c2C)-c2[nH]ncc2CC3)c1 -8.11%
CCCN(C(=O)c1cc2c(s1)-c1ccccc1OC2)c1ccccc1F -6.17%
CCc1ccccc1NS(=O)(=O)c1ccc2[nH]cc(C(=O)N3CCCCC3)c(=O)c2c1 -6.33%
COc1cc(CN(C(=O)Nc2ccccc2)c2ccccn2)cc(OC)c1OC -10.7%
COc1cccc(CNC(=O)C2CCCN(S(=O)(=O)c3ccc4c(ccn4C)c3)C2)c1 (stereo not given) -24.1%
Cc1nc2c(-c3ccccc3)c(C)nn2c(C)c1CCC(=O)NC(C)c1ccccc1 (stereo not given) -38%
CCCC(=O)Nc1cc(C)c(O)c(-c2nc3ncccc3o2)c1 -5.12%
Cc1ccc(NC(=O)c2cc(S(=O)(=O)NCCC3=CCCCC3)ccc2F)cc1F -10.2%
COc1ccc(Cl)cc1NC(=O)c1ccc2nc(Cc3ccccc3)oc2c1 -11.9%
CC(C)CCNC(=O)c1cccc(Nc2nc3ccccc3n3nnnc23)c1 -28.4%
CCc1ccc(C(=O)c2cn(CC(=O)Nc3ccc(F)c(F)c3)c3cc(OC)c(OC)cc3c2=O)cc1 -32.5%
CCCCNC(=O)C1CCCN(Cc2nc(-c3ccc(Cl)cc3)oc2C)C1 (stereo not given) -10.5%
Cc1cc(NC(=O)c2ccc(Br)o2)cc(-c2nc3ccccc3o2)c1O 2.38%
Cc1ccc(-n2nc(C(=O)N3CCN(c4cc(Cl)ccc4C)CC3)c(=O)n(C)c2=O)cc1 -4.18%
Cc1cccc(CNC(=O)c2oc3c(c2C)-c2nn(Cc4ccccc4Cl)cc2CC3)c1 -23.7%
Cc1c(Cl)cccc1NC(=O)CSc1ncnc2c1sc1ccccc12 -3.36%
COc1cc(NC(=O)CCn2c(-c3ccccc3)cc(C(C)=O)c2C)cc(OC)c1 -13.9%
Cc1cc(C)c(NC(=O)CSc2ccnc(=O)[nH]2)c(C)c1 -13.9%
COc1ccc(NC(=O)C(NS(=O)(=O)c2ccc3c(c2)CCCC(=O)N3)C(C)C)c(OC)c1 (stereo not given) 0.317%
O=C(COc1ccccc1)NCc1ccc2c(c1)CCN2C(=O)c1ccc(F)cc1 -3.08%
Cc1ccc(Cn2c(=O)c3cccnc3n(CC(=O)Nc3cccc(C(F)(F)F)c3)c2=O)cc1 -21.1%
Cc1ccc(-n2ncc3c(N4CCCCCC4)ncnc32)cc1 -8.45%
Cc1cc(OCC(=O)Nc2ccc(-c3nc4cc(Cl)ccc4o3)cc2)cc(C)c1Cl -15.8%
CCc1ccc(C2CC(=O)c3c([nH]c(C(=O)OCC4CCCCC4)c3C)C2)cc1 (stereo not given) -21.9%
NS(=O)(=O)c1ccc(CCNC(=O)C2COc3ccccc3C2)cc1 (stereo not given) -9.81%
COc1ccc(NS(=O)(=O)c2cc3[nH]c(=O)c(=O)[nH]c3cc2C)cc1Cl 3.65%
Cn1cc(S(=O)(=O)N2CCCCCC2)cc1C(=O)N1CCN(c2ccc(F)cc2)CC1 3.34%
CCOc1ccc(/C=C/c2nc(C#N)c(N3CCN(c4ccc(OC)cc4)CC3)o2)cc1 -6.24%
CCC(=O)N1CCc2cc(Br)cc(S(=O)(=O)CCC(=O)NCCc3ccc(OC)c(OC)c3)c21 -4.18%
CCOc1ccc(NC(=O)C(=O)NCCc2csc(-c3ccc(F)cc3)n2)cc1 -12.2%
CCc1cccc(NC(=O)Nc2ccc3c(c2)N(C)C(=O)c2ccccc2S3)c1 -9.62%
CCN(CC)CCOc1ccc2c(c1)C(=O)c1cc(OCCN(CC)CC)ccc1-2 -8.89%
CN(C(=O)C1CCCN(c2ncnc3c2nc2n3CCCCC2)C1)c1ccccc1F (stereo not given) -18.6%
CCN(CC)CC(C)CNC(=O)CN1C(=O)CSc2ccc(S(=O)(=O)N3CCOCC3)cc21 (stereo not given) -0.416%
COc1cc(OC)c(NC(=O)CN2C(=O)CCn3nc(-c4cccn4C)cc32)cc1Cl 1.38%
Cc1ccc(NC(=O)Cc2c(C(=O)O)c(C)cn2C)cc1Cl -10.5%
CC(C)OCCCn1c(SCc2ccccc2C#N)nc2c(sc3ccccc32)c1=O -9.3%
CCC(=O)N1CCc2cc(S(=O)(=O)NC(Cc3ccccc3)C(=O)Nc3ccc(C)cc3)ccc21 (stereo not given) -8.72%
Cc1ccc(NC(=O)c2sc3nc(-c4cc5ccccc5oc4=O)[nH]c(=O)c3c2C)c(C)c1 -10.4%
COc1cc(C(=O)Nc2cc3c(cc2C)n(C)c(=O)c(=O)n3C)cc(OC)c1OC -19.6%
COc1ccccc1-c1noc(-c2ccc(N3CCC(C)CC3)c([N+](=O)[O-])c2)n1 -23%
CCOc1ccc(-c2cc(OC(=O)c3ccc(F)cc3)c3c(C)oc(C)c3c(=O)c2)cc1 -11.7%
CCOc1ccc(-n2c(SCc3ccc(C(=O)OC)o3)nc3c([nH]c4ccccc43)c2=O)cc1 -10.3%
CCN1C(=O)c2ccccc2Sc2ccc(NC(C)=O)cc21 -30.4%
COc1cc(C(=O)Nc2cc(C)ccc2OCc2cc(=O)n3c(C)csc3n2)cc(OC)c1OC -3.66%
O=C(CC1Sc2ccc(C(F)(F)F)cc2NC1=O)Nc1ccc(Cl)c(C(F)(F)F)c1 (stereo not given) -13.6%
O=C(Nc1ccc(Br)cc1F)c1cc(S(=O)(=O)NCc2ccc(F)cc2)ccc1F -10.1%
COc1ccc(NC(=O)c2cc3c(s2)-c2c(C)cccc2OC3)c(OC)c1 -10.9%
CCOC(=O)C1CCCN(S(=O)(=O)c2ccc3c(c2)CCCN3C(C)=O)C1 (stereo not given) -12.5%
COc1ccc(CCNC(=O)c2cc3c(-c4ccccc4F)nn(C)c3s2)c(OC)c1 -6.2%
Fc1ccc(-n2cc(-c3ccccc3)c3c(NC4CCCCC4)ncnc32)cc1 -4.04%
CCOC(=O)c1cccc(NC(=O)c2cc3c(=O)n(Cc4ccccc4)ccc3nc2C)c1 -31.1%
CSc1ncc(C(=O)Nc2ccccc2C(=O)c2ccccc2)c(C(F)(F)F)n1 2.23%
CCc1nn(CC(=O)NCCCN(CC)CC)c(=O)c2cc3sc(C)cc3n12 -12.3%
CCCCNc1nc(Oc2ccc(=O)[nH]n2)nc(N(C)C)n1 6%
C=C(C)Cn1c(=O)c2c(nc3n2CCN3c2ccc(CC)cc2)n(C)c1=O -2.8%
Fc1ccc(-c2nc(Nc3cccc(Cl)c3)nc3c2COc2ccccc2-3)cc1 -7.27%
CCn1c2ccccc2c2nnc(N3CCN(c4cc(C)ccc4C)CC3)nc21 -8.1%
O=C(CCC1N=C2c3ccccc3N=C(SCc3ccccc3F)N2C1=O)NC1CCCCC1 (stereo not given) -17.9%
Cc1ccc(-n2ncc3c(NCCCN4CCOCC4)ncnc32)cc1 -10.3%
COc1cccc(-n2c(=O)c3c(C)c(C(=O)N(C)C)sc3n(Cc3ccc(F)cc3Cl)c2=O)c1 -16.7%
CCOc1ccccc1NC(=O)c1cc2c(Cl)nc3ccccc3c2s1 1.82%
COc1ccc(NC(=O)C2Cc3ccccc3N2C(=O)c2ccccc2)c(OC)c1 (stereo not given) -0.656%
COc1ccc(N2CCN(S(=O)(=O)c3ccc4c(c3)CC(C)N4C(C)=O)CC2)cc1 (stereo not given) -15.5%
Cn1c(=O)n(-c2ccc(F)c(Cl)c2)c(=O)c2sc3ccccc3c21 -0.0399%
CCOC(=O)c1c(Nc2ccc(C)cc2)nnc(-c2ccccc2)c1-c1ccccc1 -36.4%
O=C1CC2(CCCC2)CC(=O)N1 -4.45%
CC1=C(C(=O)OC2CCCCCC2)C(c2c(F)cccc2Cl)CC(=O)N1 (stereo not given) 6.1%
Cc1ccc(Cl)cc1NC(=O)c1oc2c(c1C)-c1[nH]ncc1CC2 -31.4%
COc1ccc(N(Cc2cccs2)C(=O)COc2cccc(Cl)c2)cc1 -8.67%
CCN(CCCNC(=O)c1c(C)oc2ncn(CC(C)C)c(=O)c12)Cc1ccccc1 -7.64%
COC(=O)CCSc1nc2sc3c(c2c(=O)n1Cc1ccccc1)CCC(C(C)(C)C)C3 (stereo not given) -8.84%
CCc1ccccc1NS(=O)(=O)c1ccc(OC)c2ncccc12 6.15%
CCN(CC)c1ccc(C(=C2C=CC(=[N+](CC)CC)C=C2)c2cc(S(=O)(=O)O)ccc2S(=O)(=O)[O-])cc1 -9.95%
CCC1CCCCN1C(=O)c1ccc2c(c1)N(Cc1cccc(Cl)c1)C(=O)c1ccccc1S2(=O)=O (stereo not given) -5.59%
Cc1ccc(NC(=O)CSc2nc3ccccc3c3nc(CCn4c(C)nc5ccccc54)nn23)cc1F -12.9%
Cc1c2cnn(-c3ccccc3)c(=O)c2c(C)n1CCCC(=O)Nc1ccc(F)cc1F -11.2%
O=C(c1ccc2c(Cl)c3c(nc2c1)CCCC3)N1CCN(c2ccccc2)CC1 7.89%
CCCc1nnc(NC(=O)c2nc(S(=O)(=O)Cc3ccc(C)cc3)ncc2Cl)s1 -13.2%
CC(C)(C)C1CCc2onc(C(=O)Nc3sc4c(c3C(N)=O)CCCC4)c2C1 (stereo not given) -22.8%
NC(=O)c1cc(S(=O)(=O)NCC2CCC(C(=O)Nc3cccc(Cl)c3)CC2)cs1 (stereo not given) -15.8%
Cc1c(Cl)cccc1NC(=O)CCS(=O)(=O)c1ccc(Br)s1 -10.5%
CCOC(=O)c1cc(-c2ccccc2)n(CCCC(=O)Nc2ccc(CC)cc2)c1C 0.948%
CCOc1ccccc1NS(=O)(=O)c1c(-c2ccc(C)cc2)csc1C(=O)OC -5.71%
Fc1ccc(CNc2ncnc3c2c(-c2ccccc2)cn3-c2ccccc2)cc1 -7.52%
Cn1c(=O)n(C)c2cc(S(=O)(=O)Nc3ccccc3C(=O)O)ccc21 -18.1%
COCCNC(=O)c1ccc2c(c1)N(Cc1cccc(Cl)c1)C(=O)c1ccccc1S2=O (stereo not given) -4.11%
CN(C(=O)CSc1nnc2[nH]c(=O)cc(-c3ccccc3)n12)c1ccccc1 -6.36%
Cc1ccc(C)c(NC(=O)CCNS(=O)(=O)c2ccc3c(c2)CCCC(=O)N3)c1 -11.9%
CCOC(=O)c1cc(-c2ccccc2)n(CC(=O)NCc2ccccc2OC)c1C -11.1%
O=C(Nc1ccc(F)c(F)c1)C1CCCN(S(=O)(=O)c2cccc3nonc23)C1 (stereo not given) -18%
Cc1ccc(C)c(N2CCN(C(=O)CN3C(=O)CSc4c3c(C)nn4-c3ccccc3)CC2)c1 -12.5%
COc1ccccc1NC(=O)CSCc1cc(=O)c2c(C)cc(C)cc2[nH]1 -24.2%
